According to the supplement of paper PMC10037445:
In all, about 2,900 compounds were measured (“NF-kB SEAP reporter activity, fold change vs agonist alone”: median about 0.99, highest 2% from about 2.6 on). Some of the results follow.

Assays:
RAW-Dual [1] = experiment: NF-kB SEAP reporter activity, fold change vs agonist alone; higher = enhanced NF-kB activity
Method in brief: (§1)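 RAW-Dual macrophages were seeded in DMEM at 50,000 cells/well in 384-well plates, given 50 nL of library stock by pin tool, and given a PRR agonist 1 h later. Plates were held at 37 °C, 5% CO2 for 20 hours, after which supernatant was read for IRF by QuantiLuc luminescence and for NF-κB by QuantiBlue absorbance at 620 nm. Reporter activity is expressed as fold change over wells that received agonist alone. A well was called cytotoxic when IncuCyte confluency fell below 70% of agonist controls in both mask sets.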

RAW-Dual [2] = experiment: NF-kB SEAP reporter activity, fold change vs agonist alone; cytotoxicity flag (confluency mask): cytotoxic (confluency <70% of control); higher = enhanced NF-kB activity
Method in brief: as §1

RAW-Dual [3] = experiment: NF-kB SEAP reporter activity, fold change vs agonist alone; cytotoxicity flag (confluency mask): not cytotoxic; higher = enhanced NF-kB activity
Method in brief: as §1

[4] = library stock concentration (final ~1000-fold dilution): 10 mM, cytotoxicity flag (confluency mask): cytotoxic (confluency <70% of control), agonist: Imiquimod (TLR7) […]
[5] = library stock concentration (final ~1000-fold dilution): 10 mM, cytotoxicity flag (confluency mask): cytotoxic (confluency <70% of control), agonist: MPLA (TLR4) […]
[6] = agonist: ODN 1826 (TLR9) 0.5 ug/mL
[7] = agonist: Pam2CSK4 (TLR2/6) 0.1 ug/mL
[8] = agonist: Pam3CSK4 (TLR2/1) 0.1 ug/mL
[9] = library stock concentration (final ~1000-fold dilution): 10 mM, cytotoxicity flag (confluency mask): not cytotoxic, agonist: Imiquimod (TLR7) […]
[10] = library stock concentration (final ~1000-fold dilution): 10 mM, cytotoxicity flag (confluency mask): not cytotoxic, agonist: MPLA (TLR4) […]

Cc1sc2c(c1C)C(c1ccc(Cl)cc1)=N[C@@H](CC(=O)NCCCCCCCCNC(=O)COc1cccc3c1C(=O)N(C1CCC(=O)NC1=O)C3=O)c1nnc(C)n1-2 (some centres not stated)
NF-kB SEAP reporter activity (RAW-Dual [1]; [4]): 1.73
NF-kB SEAP reporter activity (RAW-Dual [1]; [5]): 2.44

Cc1sc2c(c1C)C(c1ccc(Cl)cc1)=N[C@@H](CC(=O)NCCCCCCCCNC(=O)COc1cccc3c1C(=O)N(C1CCC(=O)NC1=O)C3=O)c1nnc(C)n1-2 (some centres not stated) (library stock concentration (final ~1000-fold dilution): 10 mM)
NF-kB SEAP reporter activity (RAW-Dual [2]; agonist: LPS (TLR4) 0.1 ug/mL): 3.73
NF-kB SEAP reporter activity (RAW-Dual [2]; [6]): 1.84
NF-kB SEAP reporter activity (RAW-Dual [2]; [7]): 1.74
NF-kB SEAP reporter activity (RAW-Dual [2]; [8]): 3

CC(C)C(CO)Nc1nc(Nc2cccc(Cl)c2)c2ncn(C(C)C)c2n1 (configuration not stated) (library stock concentration (final ~1000-fold dilution): 10 mM)
NF-kB SEAP reporter activity (RAW-Dual [3]; agonist: LPS (TLR4) 0.1 ug/mL): 0.715
NF-kB SEAP reporter activity (RAW-Dual [3]; [6]): 1.05
NF-kB SEAP reporter activity (RAW-Dual [3]; [7]): 1.22
NF-kB SEAP reporter activity (RAW-Dual [3]; [8]): 0.679

CC(C)C(CO)Nc1nc(Nc2cccc(Cl)c2)c2ncn(C(C)C)c2n1 (configuration not stated)
NF-kB SEAP reporter activity (RAW-Dual [1]; [9]): 1.19
NF-kB SEAP reporter activity (RAW-Dual [1]; [10]): 1.14

CNC(=O)c1ccc(Nc2ncc(C(F)(F)F)c(NCc3nccnc3N(C)S(C)(=O)=O)n2)cc1 (library stock concentration (final ~1000-fold dilution): 2 mM)
NF-kB SEAP reporter activity (RAW-Dual [3]; agonist: LPS (TLR4) 0.1 ug/mL): 1.96
NF-kB SEAP reporter activity (RAW-Dual [3]; [6]): 0.888
NF-kB SEAP reporter activity (RAW-Dual [3]; [7]): 1.12
NF-kB SEAP reporter activity (RAW-Dual [3]; [8]): 1.47

CNC(=O)c1ccc(Nc2ncc(C(F)(F)F)c(NCc3nccnc3N(C)S(C)(=O)=O)n2)cc1
NF-kB SEAP reporter activity (RAW-Dual [1]; library stock concentration (final ~1000-fold dilution): 2 mM, cytotoxicity flag (confluency mask): not cytotoxic, agonist: Imiquimod (TLR7) […]): 0.85
NF-kB SEAP reporter activity (RAW-Dual [1]; library stock concentration (final ~1000-fold dilution): 2 mM, cytotoxicity flag (confluency mask): not cytotoxic, agonist: MPLA (TLR4) […]): 1.07

Cc1cc2c(s1)Nc1ccccc1N=C2N1CCN(C)CC1 (library stock concentration (final ~1000-fold dilution): 10 mM)
NF-kB SEAP reporter activity (RAW-Dual [3]; agonist: LPS (TLR4) 0.1 ug/mL): 0.923
NF-kB SEAP reporter activity (RAW-Dual [3]; [6]): 0.288
NF-kB SEAP reporter activity (RAW-Dual [3]; [7]): 1.05
NF-kB SEAP reporter activity (RAW-Dual [3]; [8]): 1.03

Cc1cc2c(s1)Nc1ccccc1N=C2N1CCN(C)CC1
NF-kB SEAP reporter activity (RAW-Dual [1]; [9]): 0.855
NF-kB SEAP reporter activity (RAW-Dual [1]; [10]): 1.02

CCN(CC)CCOC(=O)c1ccc(N)cc1.Cl
NF-kB SEAP reporter activity (RAW-Dual [1]; [9]): 0.904
NF-kB SEAP reporter activity (RAW-Dual [1]; [10]): 1.06

CCN(CC)CCOC(=O)c1ccc(N)cc1.Cl (library stock concentration (final ~1000-fold dilution): 10 mM)
NF-kB SEAP reporter activity (RAW-Dual [3]; agonist: LPS (TLR4) 0.1 ug/mL): 1.16
NF-kB SEAP reporter activity (RAW-Dual [3]; [6]): 0.957
NF-kB SEAP reporter activity (RAW-Dual [3]; [7]): 1.09
NF-kB SEAP reporter activity (RAW-Dual [3]; [8]): 1.11

CN1C(=O)C(Cc2c[nH]c3ccccc23)NC1=S (configuration not stated)
NF-kB SEAP reporter activity (RAW-Dual [1]; [9]): 0.924
NF-kB SEAP reporter activity (RAW-Dual [1]; [10]): 1.01

CN1C(=O)C(Cc2c[nH]c3ccccc23)NC1=S (configuration not stated) (library stock concentration (final ~1000-fold dilution): 10 mM)
NF-kB SEAP reporter activity (RAW-Dual [3]; agonist: LPS (TLR4) 0.1 ug/mL): 1.08
NF-kB SEAP reporter activity (RAW-Dual [3]; [6]): 0.938
NF-kB SEAP reporter activity (RAW-Dual [3]; [7]): 1.13
NF-kB SEAP reporter activity (RAW-Dual [3]; [8]): 1.21

CN1CCN2c3ccccc3Cc3ccccc3C2C1.Cl (configuration not stated) (library stock concentration (final ~1000-fold dilution): 10 mM)
NF-kB SEAP reporter activity (RAW-Dual [3]; agonist: LPS (TLR4) 0.1 ug/mL): 1.08
NF-kB SEAP reporter activity (RAW-Dual [3]; [6]): 0.732
NF-kB SEAP reporter activity (RAW-Dual [3]; [7]): 0.813
NF-kB SEAP reporter activity (RAW-Dual [3]; [8]): 0.995

CN1CCN2c3ccccc3Cc3ccccc3C2C1.Cl (configuration not stated)
NF-kB SEAP reporter activity (RAW-Dual [1]; [9]): 1.32
NF-kB SEAP reporter activity (RAW-Dual [1]; [10]): 1.13

C=C1c2cccc(O)c2C(=O)C2=C(O)C3(O)C(=O)C(C(N)=O)=C(O)C(N(C)C)C3C(O)C12.Cl (configuration not stated)
NF-kB SEAP reporter activity (RAW-Dual [1]; library stock concentration (final ~1000-fold dilution): 10 mM water, cytotoxicity flag (confluency mask): not cytotoxic, agonist: Imiquimod (TLR7) […]): 0.915
NF-kB SEAP reporter activity (RAW-Dual [1]; library stock concentration (final ~1000-fold dilution): 10 mM water, cytotoxicity flag (confluency mask): not cytotoxic, agonist: MPLA (TLR4) […]): 1.08

C=C1c2cccc(O)c2C(=O)C2=C(O)C3(O)C(=O)C(C(N)=O)=C(O)C(N(C)C)C3C(O)C12.Cl (configuration not stated) (library stock concentration (final ~1000-fold dilution): 10 mM water)
NF-kB SEAP reporter activity (RAW-Dual [3]; agonist: LPS (TLR4) 0.1 ug/mL): 1.12
NF-kB SEAP reporter activity (RAW-Dual [3]; [6]): 1.14
NF-kB SEAP reporter activity (RAW-Dual [3]; [7]): 1.26
NF-kB SEAP reporter activity (RAW-Dual [3]; [8]): 1.05

CCN(CC)CCOc1ccc(Nc2ncc3cc(-c4c(Cl)cccc4Cl)c(=O)n(C)c3n2)cc1
NF-kB SEAP reporter activity (RAW-Dual [1]; [4]): 0.492
NF-kB SEAP reporter activity (RAW-Dual [1]; [5]): 0.332

CCN(CC)CCOc1ccc(Nc2ncc3cc(-c4c(Cl)cccc4Cl)c(=O)n(C)c3n2)cc1 (library stock concentration (final ~1000-fold dilution): 10 mM)
NF-kB SEAP reporter activity (RAW-Dual [2]; agonist: LPS (TLR4) 0.1 ug/mL): 0.238
NF-kB SEAP reporter activity (RAW-Dual [2]; [6]): 0.236
NF-kB SEAP reporter activity (RAW-Dual [2]; [7]): 0.0747
NF-kB SEAP reporter activity (RAW-Dual [2]; [8]): 0.145

CS(=O)(=O)c1ccc(-c2cnc(NCc3ccco3)n3cnnc23)cc1
NF-kB SEAP reporter activity (RAW-Dual [1]; [9]): 0.866
NF-kB SEAP reporter activity (RAW-Dual [1]; [10]): 1.06

CS(=O)(=O)c1ccc(-c2cnc(NCc3ccco3)n3cnnc23)cc1 (library stock concentration (final ~1000-fold dilution): 10 mM)
NF-kB SEAP reporter activity (RAW-Dual [3]; agonist: LPS (TLR4) 0.1 ug/mL): 1.09
NF-kB SEAP reporter activity (RAW-Dual [3]; [6]): 0.968
NF-kB SEAP reporter activity (RAW-Dual [3]; [7]): 0.796
NF-kB SEAP reporter activity (RAW-Dual [3]; [8]): 1.14

CCn1nc(C2CCN(C(=O)CCO)CC2)nc1-c1cnc(N)c(-c2nnc(C(C)(C)C)o2)n1 (library stock concentration (final ~1000-fold dilution): 10 mM)
NF-kB SEAP reporter activity (RAW-Dual [3]; agonist: LPS (TLR4) 0.1 ug/mL): 1.61
NF-kB SEAP reporter activity (RAW-Dual [3]; [6]): 1.1
NF-kB SEAP reporter activity (RAW-Dual [3]; [7]): 1.15
NF-kB SEAP reporter activity (RAW-Dual [3]; [8]): 1

CCn1nc(C2CCN(C(=O)CCO)CC2)nc1-c1cnc(N)c(-c2nnc(C(C)(C)C)o2)n1
NF-kB SEAP reporter activity (RAW-Dual [1]; [9]): 0.872
NF-kB SEAP reporter activity (RAW-Dual [1]; [10]): 1.18

Cc1nc2cc(F)c(F)cc2n1-c1cncc(Nc2ccc(C(F)(F)F)cc2)n1
NF-kB SEAP reporter activity (RAW-Dual [1]; [9]): 1.56
NF-kB SEAP reporter activity (RAW-Dual [1]; [10]): 1.33

Cc1nc2cc(F)c(F)cc2n1-c1cncc(Nc2ccc(C(F)(F)F)cc2)n1 (library stock concentration (final ~1000-fold dilution): 10 mM)
NF-kB SEAP reporter activity (RAW-Dual [3]; agonist: LPS (TLR4) 0.1 ug/mL): 1.36
NF-kB SEAP reporter activity (RAW-Dual [3]; [6]): 1.31
NF-kB SEAP reporter activity (RAW-Dual [3]; [7]): 0.571
NF-kB SEAP reporter activity (RAW-Dual [3]; [8]): 0.582

COc1cc2ncnc(Nc3ccc(F)c(Cl)c3)c2cc1OCCCN1CCOCC1.Cl (library stock concentration (final ~1000-fold dilution): 10 mM)
NF-kB SEAP reporter activity (RAW-Dual [3]; agonist: LPS (TLR4) 0.1 ug/mL): 1.23
NF-kB SEAP reporter activity (RAW-Dual [3]; [6]): 0.277
NF-kB SEAP reporter activity (RAW-Dual [3]; [7]): 0.967
NF-kB SEAP reporter activity (RAW-Dual [3]; [8]): 0.737

COc1cc2ncnc(Nc3ccc(F)c(Cl)c3)c2cc1OCCCN1CCOCC1.Cl
NF-kB SEAP reporter activity (RAW-Dual [1]; [10]): 1.29
